# In patent publication US20170081387A1 (SHANGHAI KANDA BIOTECHNOLOGY, published 2017):
# B1: fusion protein A (Fc fusion)
# chain: LPAQVAFTPYAPEPGSTCRLREYYDQTAQMCCSKCSPGQHAKVFCTKTSDTVCDAMRSCPEEQYWDPLLGTCMSCKTICNHQSQRTCAAFCRSLSCRKEQGKFYDHLLRDCISCASICGQHPKQCAYFCENKLRSPVNLPPELR[human IgG1 Fc with D221Y (EU numbers) omitted here]
# notes: Expressed in CHO DG44 cells and purified; also called TACI-Fc fusion protein; TACI-Fc
# Target: T1, recombinant human BAFF (human, UniProt Q9Y275 in part)
# T1 construct: domain: soluble fragments; Bought reagent; also called rhBAFF
# T1 sequence (Q9Y275 134-285 limits assumed): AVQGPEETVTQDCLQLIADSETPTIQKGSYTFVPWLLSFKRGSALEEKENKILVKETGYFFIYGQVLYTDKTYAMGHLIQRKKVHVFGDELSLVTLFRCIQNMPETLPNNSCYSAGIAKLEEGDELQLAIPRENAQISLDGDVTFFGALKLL
# Assay: ELISA, rhBAFF coated on plate, detection with HRP anti-human Fc
# Procedure: In vitro binding assay studies of the fusion proteins A and B were performed mainly using ELISA principle. A certain amount of rhBAFF was fixed onto microtiter plates. Each well was added a series of gradient concentration of the fusion proteins A or B to conduct binding reaction. Finally, the amount of the fusion protein binding to rhBAFF on the plate was detected by HRP-conjugated anti-human Fc to examine the bind of rhBAFF.
# The soluble fragments of the recombinant human BAFF were diluted with PBS (pH7.4) to 0.5 g/ml and then added to microtiter plates (Greiner bio-one, Cat #655001). Each well was added 50 μl and incubated at 4° C. overnight. On the next day, the plate was washed with ultrapure water and then blocked with 5% non-fat dried milk/PBST. The samples to be detected were diluted with 3-fold gradient starting from 3 μg/ml and then added to microtiter plates. […] The absorbance at 490 nm was detected using a microplate reader (Bio-Rad, iMark) with 655 nm as the reference. The graph was made based on absorbance versus the logarithm of the molar concentration of the sample to be measured and EC₅₀ (the concentration corresponding to 50% of the absorption value change) was calculated by S-curve fitting using Origin software to represent the in vitro binding activity of the sample.
binder,measurement,value
B1,binding result,binds
